# Assay results from the supplement of paper PMC12217912.
# This is one part of the list. The full chains were built here from the parent and the listed change. Values near 0.05 are background.
# B1: TEV protease; numbered along this chain (parent)
# chain: MGESLFKGPRDYNPISSSICHLTNESDGHTTSLYGIGFGPFIITNKHLFRRNNGTLVVQSLHGVFKVKDTTTLQQHLVDGRDMIIIRMPKDFPPFPQKLKFREPQREERICLVTTNFQTKSMSSMVSDTSCTFPSGDGIFWKHWIQTKDGQCGSPLVSTRDGFIVGIHSASNFTNTNNYFTSVPKNFMELLTNQEAQQWVSGWRLNADSVLWGGHKVFMVKPEEPFQPVKEATQL
# Variants of: B1
# Assay: raw area under fraction-flipped curve 0-4 h after induction (AUC4h, not background-subtracted), DNA-recorder readout of cleavage of the substrate (dimensionless); higher = more cleavage of the substrate by the protease variant
# Conditions: temperature: 34 °C; time window: 0-4 h after rhamnose induction
# Method: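 In vivo DNA recorder in E. coli TOP10(DE3) ΔrhaA at 34 °C. Each TEVp single-site mutant (parent TEVp 0) is paired with a single-site variant of the 7-mer TEVs (canonical ENLYFQ|S). The substrate sits between flexible linkers in a Bxb1-sfGFP-TEVs-SsrA fusion, so cleavage stabilises Bxb1 and speeds flipping of a recombination array, read by NGS. The value is the raw area under the fraction-flipped curve over 0-4 h after rhamnose induction (AUC4h), with ≥20 reads per time point. It is not background-subtracted; inactive controls average about 0.047.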
# 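Also: Bxb1 expression induced with 0.2% (w/v) L-rhamnose at OD600 near 0.5, cultures sampled hourly, flipped fraction per protease–substrate barcode pair counted by paired-end Illumina sequencing.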
Variant,area with substrate ENLYFAS,area with substrate ENLYFCS,area with substrate ENLYFDS,area with substrate ENLYFES,area with substrate ENLYFFS,area with substrate ENLYFGS,area with substrate ENLYFIS,area with substrate ENLYFKS,area with substrate ENLYFLS,area with substrate ENLYFMS,area with substrate ENLYFNS,area with substrate ENLYFPS,area with substrate ENLYFRS,area with substrate ENLYFSS,area with substrate ENLYFTS,area with substrate ENLYFWS,area with substrate ENLYFYS,area with substrate ENLYFHS,area with substrate ENLYFVS
MGESLFKGPRDYNPISSSICHLTNESDGHTTSLYGIGFGPFIITNKHLFRRNNGTLVVQSLHGVFKVKDTTTLQQHLVDGRDMIIIRMPKDFPPFPQKLKFREPQREERICLVTTNFQTKSMSSMVSDTSCTFPSGDGIFWKHWIQTKDGQCGSPLVSTRDGFIVGIHSASNFTNTNNYFTSVPKNFMELLTNQEAQQWVSGWRLNADSCLWGGHKVFMVKPEEPFQPVKEATQL [V210C],0.0568,0.0482,0.0499,0.0587,0.0725,0.0772,0.0493,0.0577,0.0284,0.0575,0.0684,0.0591,0.0588,0.0589,0.0519,0.048,0.0597,,
MGESLFKGPRDYNPISSSICHLTNESDGHTTSLYGIGFGPFIITNKHLFRRNNGTLVVQSLHGVFKVKDTTTLQQHLVDGRDMIIIRMPKDFPPFPQKLKFREPQREERICLVTTNFQTKSMSSMVSDTSCTFPSGDGIFWKHWIQTKDGQCGSPLVSTRDGFIVGIHSASNFTNTNNYFTSVPKNFMELLTNQEAQQWVSGWRLNADSLLWGGHKVFMVKPEEPFQPVKEATQL [V210L],0.0722,0.0412,0.0695,,0.0645,,0.067,0.0634,,0.0541,0.05,0.0604,,0.0528,0.0641,0.112,0.0609,0.0611,
MGESLFKGPRDYNPISSSICHLTNESDGHTTSLYGIGFGPFIITNKHLFRRNNGTLVVQSLHGVFKVKDTTTLQQHLVDGRDMIIIRMPKDFPPFPQKLKFREPQREERICLVTTNFQTKSMSSMVSDTSCTFPSGDGIFWKHWIQTKDGQCGSPLVSTRDGFIVGIHSASNFTNTNNYFTSVPKNFMELLTNQEAQQWVSGWRLNADSQLWGGHKVFMVKPEEPFQPVKEATQL [V210Q],0.0535,,0.0581,0.0544,0.0659,,0.0578,0.0722,,0.065,0.0643,0.0476,0.0824,0.0605,0.0414,0.0569,,0.062,0.0462
MGESLFKGPRDYNPISSSICHLTNESDGHTTSLYGIGFGPFIITNKHLFRRNNGTLVVQSLHGVFKVKDTTTLQQHLVDGRDMIIIRMPKDFPPFPQKLKFREPQREERICLVTTNFQTKSMSSMVSDTSCTFPSGDGIFWKHWIQTKDGQCGSPLVSTRDGFIVGIHSASNFTNTNNYFTSVPKNFMELLTNQEEQQWVSGWRLNADSVLWGGHKVFMVKPEEPFQPVKEATQL [A196E],0.0612,0.0651,,0.0596,0.0703,0.0607,0.0534,0.0638,,0.0663,,0.0568,0.0634,,0.0597,0.0596,0.0605,0.0488,0.0506
MGESLFKGPRDYNPISSSICHLTNESDGHTTSLYGIGFGPFIITNKHLFRRNNGTLVVQSLHGVFKVKDTTTLQQHLVDGRDMIIIRMPKDFPPFPQKLKFREPQREERICLVTTNFQTKSMSSMVSDTSCTFPSGDGIFWKHWIQTKDGQCGSPLVSTRDGFIVGIHSASNFTNTNNYFTSVPKNFMELLTNQEKQQWVSGWRLNADSVLWGGHKVFMVKPEEPFQPVKEATQL [A196K],0.0597,,0.0838,0.0601,0.0729,0.0606,0.0627,0.0663,0.055,0.0688,0.0676,0.0637,0.0573,0.0638,0.0601,0.0762,0.0595,0.0607,
MGESLFKGPRDYNPISSSICHLTNESDGHTTSLYGIGFGPFIITNKHLFRRNNGTLVVQSLHGVFKVKDTTTLQQHLVDGRDMIIIRMPKDFPPFPQKLKFREPQREERICLVTTNFQTKSMSSMVSDTSCTFPSGDGIFWKHWIQTKDGQCGSPLVSTRDGFIVGIHSASNFTNTNNYFTSVPKNFMELLTNQEAQQWVSGWCLNADSVLWGGHKVFMVKPEEPFQPVKEATQL [R204C],0.0497,0.0662,,0.0732,0.068,0.0577,0.0532,0.144,0.06,0.0524,,0.0541,0.0548,0.0664,0.0659,0.0594,0.0506,,0.0644
MGESLFKGPRDYNPISSSICHLTNESDGHTTSLYGIGFGPFIITNKHLFRRNNGTLVVQSLHGVFKVKDTTTLQQHLVDGRDMIIIRMPKDFPPFPQKLKFREPQREERICLVTTNFQTKSMSSMVSDTSCTFPSGDGIFWKHWIQTKDGQCGSPLVSTRDGFIVGIHSASNFTNTNNYFTSVPKNFMELLTNQEAQQWVSGWRLNADFVLWGGHKVFMVKPEEPFQPVKEATQL [S209F],0.0576,0.068,0.062,0.0566,,0.0424,0.0517,0.0635,,0.065,0.0731,0.0644,,,0.0508,0.0565,0.0638,0.0694,0.0516
MGESLFKGPRDYNPISSSICHLTNESDGHTTSLYGIGFGPFIITNKHLFRRNNGTLVVQSLHGVFKVKDTTTLQQHLVDGRDMIIIRMPKDFPPFPQKLKFREPQREERICLVTTNFQTKSMSSMVSDTSCTFPSGDGIFWKHWIQTKDGQCGSPLVSTRDGFIVGIHSASNFTNTNNYFTSVPKNFMELLTNQEAQQCVSGWRLNADSVLWGGHKVFMVKPEEPFQPVKEATQL [W199C],0.0667,0.0564,,0.053,0.0465,0.0638,0.0555,,0.0526,0.0623,,0.064,0.0699,0.0694,0.0548,0.0564,0.0506,0.0592,
